# This is one part of the list.
# B1: Sebin1 (Coprinopsis cinerea), A8PEE3 (protein)
# chain: MTSPFYAHIHNVQDDNTWRFTLIFANRATADEWWRAISEAPANTSIAKSITRVTPQYYTHDVNIWNIWNFFADGNIKSISERFRGRLFIVLENDRGGRGITVIPPVPIVDHVSGNWFYIRSKTAPHLFWYYDERRSSIYASKEKRTRFKISIRNPSSQTPKNAIMINTDDVTIHIKENLYVGVDNNLGHIIPTRAYRTFKFGELESGAIAGFDVVENIEERCSSTFDGASLSISGPDSSSPGEPWELV
# Experiments:
# Test in all cases: glycan array binding signal (z-score within array); higher = stronger binding
# Conditions in all cases: glycan notation: IUPAC condensed, linker removed
# [1] = biological target: Gal(b1-3)GlcNAc(b1-2)Man(a1-3)[Gal(b1-3)GlcNAc(b1-2)Man(a1-6)]Man(b1-4)GlcNAc(b1-4)GlcNAc
# How it was run: (§1)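 The binding signal is a Z-score computed within each array. Data were drawn from 3228 arrays in the Consortium for Functional Glycomics database, restricted to those with a known protein sequence. Scores were averaged over arrays of the same protein sequence at different concentrations or buffers, and over linkers, and negative values can be taken as non-binding.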
# [2] = biological target: Gal(b1-3)GlcNAc(b1-2)Man(a1-3)[Gal(b1-3)GlcNAc(b1-2)Man(a1-6)]Man(b1-4)GlcNAc(b1-4)[Fuc(a1-6)]GlcNAc
# How it was run: as §1
# [3] = biological target: Gal(b1-3)GlcNAc(b1-2)Man(a1-3)[GlcNAc(b1-4)][Gal(b1-3)GlcNAc(b1-2)Man(a1-6)]Man(b1-4)GlcNAc(b1-4)GlcNAc
# How it was run: as §1
# [4] = biological target: Gal(b1-3)GlcNAc(b1-2)[Gal(b1-3)GlcNAc(b1-6)]Man(a1-6)[Gal(b1-3)GlcNAc(b1-2)Man(a1-3)]Man(b1-4)GlcNAc(b1-4)GlcNAc
# How it was run: as §1
# [5] = biological target: Gal(b1-3)GlcNAc(b1-3)Gal(b1-3)GlcNAc
# How it was run: as §1
# [6] = biological target: Gal(b1-3)GlcNAc(b1-3)Gal(b1-4)Glc
# How it was run: as §1
# [7] = biological target: Gal(b1-3)GlcNAc(b1-3)Gal(b1-4)GlcNAc
# How it was run: as §1
# [8] = biological target: Gal(b1-3)GlcNAc(b1-3)Gal(b1-4)GlcNAc(b1-2)Man(a1-3)[Gal(b1-3)GlcNAc(b1-3)Gal(b1-4)GlcNAc(b1-2)Man(a1-6)]Man(b1-4)GlcNAc(b1-4)GlcNAc
# How it was run: as §1
# [9] = biological target: Gal(b1-3)GlcNAc(b1-3)Gal(b1-4)GlcNAc(b1-2)[Gal(b1-3)GlcNAc(b1-3)Gal(b1-4)GlcNAc(b1-6)]Man(a1-6)[Gal(b1-3)GlcNAc(b1-3)Gal(b1-4)GlcNAc(b1-2)Man(a1-3)]Man(b1-4)GlcNAc(b1-4)[Fuc(a1-6)]GlcNAc
# How it was run: as §1
# [10] = biological target: Gal(b1-3)GlcNAc(b1-3)Gal(b1-4)GlcNAc(b1-3)Gal(b1-4)GlcNAc(b1-2)[Gal(b1-3)GlcNAc(b1-3)Gal(b1-4)GlcNAc(b1-3)Gal(b1-4)GlcNAc(b1-6)]Man(a1-6)[Gal(b1-3)GlcNAc(b1-3)Gal(b1-4)GlcNAc(b1-3)Gal(b1-4)GlcNAc(b1-2)Man(a1-3)]Man(b1-4)GlcNAc(b1-4)[Fuc(a1-6)]GlcNAc
# How it was run: as §1
# [11] = biological target: Gal(b1-3)GlcNAc(b1-3)Gal(b1-4)GlcNAc(b1-6)[Gal(b1-3)GlcNAc(b1-3)]Gal(b1-4)Glc
# How it was run: as §1
# [12] = biological target: Gal(b1-3)GlcNAc(b1-3)Gal(b1-4)[Fuc(a1-3)]GlcNAc
# How it was run: as §1
# [13] = biological target: Gal(b1-3)GlcNAc(b1-3)Gal(b1-4)[Fuc(a1-3)]GlcNAc(b1-6)[Gal(b1-3)GlcNAc(b1-3)]Gal(b1-4)Glc
# How it was run: as §1
# [14] = biological target: Gal(b1-3)GlcNAc(b1-3)GalNAc
# How it was run: as §1
# [15] = biological target: Gal(b1-3)GlcNAc(b1-6)Gal(b1-4)GlcNAc
# How it was run: as §1
# [16] = biological target: Gal(b1-3)GlcNAc(b1-6)GalNAc
# How it was run: as §1
# [17] = biological target: Gal(b1-3)GlcNAc(b1-6)[Gal(b1-3)]GalNAc
# How it was run: as §1
# Gal(b1-3)GlcNAc6S = biological target: Gal(b1-3)GlcNAc6S
# How it was run: as §1
# [18] = biological target: Gal(b1-3)[Fuc(a1-4)]GlcNAc
# How it was run: as §1
# [19] = biological target: Gal(b1-3)[Fuc(a1-4)]GlcNAc(b1-2)Man
# How it was run: as §1
# [20] = biological target: Gal(b1-3)[Fuc(a1-4)]GlcNAc(b1-2)Man(a1-3)[Gal(b1-3)[Fuc(a1-4)]GlcNAc(b1-2)Man(a1-6)]Man(b1-4)GlcNAc(b1-4)[Fuc(a1-6)]GlcNAc
# How it was run: as §1
# [21] = biological target: Gal(b1-3)[Fuc(a1-4)]GlcNAc(b1-3)Gal(b1-3)[Fuc(a1-4)]GlcNAc
# How it was run: as §1
# [22] = biological target: Gal(b1-3)[Fuc(a1-4)]GlcNAc(b1-3)Gal(b1-4)[Fuc(a1-3)]GlcNAc
# How it was run: as §1
# [23] = biological target: Gal(b1-3)[Fuc(a1-4)]GlcNAc(b1-6)GalNAc
# How it was run: as §1
# [24] = biological target: Gal(b1-3)[GlcNAc(b1-6)]GalNAc
# How it was run: as §1
# [25] = biological target: Gal(b1-3)[Neu5Ac(a2-6)]GalNAc
# How it was run: as §1
# [26] = biological target: Gal(b1-3)[Neu5Ac(a2-6)]GlcNAc(b1-4)Gal(b1-4)Glc
# How it was run: as §1
# [27] = biological target: Gal(b1-3)[Neu5Ac(b2-6)]GalNAc
# How it was run: as §1
# Gal(b1-4)Gal = biological target: Gal(b1-4)Gal
# How it was run: as §1
# [28] = biological target: Gal(b1-4)GalNAc(a1-3)[Fuc(a1-2)]Gal(b1-4)GlcNAc
# How it was run: as §1
# [29] = biological target: Gal(b1-4)GalNAc(b1-3)[Fuc(a1-2)]Gal(b1-4)GlcNAc
# How it was run: as §1
# Gal(b1-4)Glc = biological target: Gal(b1-4)Glc
# How it was run: as §1
# Gal(b1-4)Glc6S = biological target: Gal(b1-4)Glc6S
# How it was run: as §1
# Gal(b1-4)GlcNAc = biological target: Gal(b1-4)GlcNAc
# How it was run: as §1
# [30] = biological target: Gal(b1-4)GlcNAc(a1-6)Gal(b1-4)GlcNAc
# How it was run: as §1
# Gal(b1-4)GlcNAc(b1-2)Man = biological target: Gal(b1-4)GlcNAc(b1-2)Man
# How it was run: as §1
# [31] = biological target: Gal(b1-4)GlcNAc(b1-2)Man(a1-3)Man(b1-4)GlcNAc(b1-4)GlcNAc
# How it was run: as §1
binder,measurement,setting,value
B1,glycan array binding signal (z-score),[1],-0.529
same,glycan array binding signal (z-score),[2],-0.025
same,glycan array binding signal (z-score),[3],2.39
same,glycan array binding signal (z-score),[4],0.275
same,glycan array binding signal (z-score),[5],0.162
same,glycan array binding signal (z-score),[6],-0.671
same,glycan array binding signal (z-score),[7],-0.578
same,glycan array binding signal (z-score),[8],-0.1
same,glycan array binding signal (z-score),[9],-0.288
same,glycan array binding signal (z-score),[10],1.74
same,glycan array binding signal (z-score),[11],-0.03
same,glycan array binding signal (z-score),[12],-0.141
same,glycan array binding signal (z-score),[13],0.307
same,glycan array binding signal (z-score),[14],-0.277
same,glycan array binding signal (z-score),[15],-0.432
same,glycan array binding signal (z-score),[16],0.44
same,glycan array binding signal (z-score),[17],0.75
same,glycan array binding signal (z-score),Gal(b1-3)GlcNAc6S,-0.158
same,glycan array binding signal (z-score),[18],-0.514
same,glycan array binding signal (z-score),[19],0.391
same,glycan array binding signal (z-score),[20],0.303
same,glycan array binding signal (z-score),[21],0.077
same,glycan array binding signal (z-score),[22],-0.476
same,glycan array binding signal (z-score),[23],0.36
same,glycan array binding signal (z-score),[24],-0.363
same,glycan array binding signal (z-score),[25],0.26
same,glycan array binding signal (z-score),[26],0.647
same,glycan array binding signal (z-score),[27],-0.121
same,glycan array binding signal (z-score),Gal(b1-4)Gal,-0.142
same,glycan array binding signal (z-score),[28],-0.27
same,glycan array binding signal (z-score),[29],-0.358
same,glycan array binding signal (z-score),Gal(b1-4)Glc,-0.68
same,glycan array binding signal (z-score),Gal(b1-4)Glc6S,-0.312
same,glycan array binding signal (z-score),Gal(b1-4)GlcNAc,-0.703
same,glycan array binding signal (z-score),[30],0.011
same,glycan array binding signal (z-score),Gal(b1-4)GlcNAc(b1-2)Man,0.033
same,glycan array binding signal (z-score),[31],-0.09
